Experimental data published in the supplement of paper PMC8821664.
Counter-ions that a name gives are not always drawn. The list shows a part of the results. Most values come without repeats; read them as rough.

test system: Beas-2B AQP5-HiBiT reporter cells; experiment: AQP5-HiBiT luminescence relative to vehicle (ratio to vehicle); higher = higher AQP5-HiBiT protein abundance; conditions: 10 µM; 18 h
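Also: monoclonal Beas-2B line stably carrying CMV promoter-driven AQP5-HiBiT, 5,000 cells per well in 384-well plates, lytic HiBiT plus LgBiT NanoLuc luminescence, FDA-approved drug library screen.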

Compound	AQP5-HiBiT luminescence
C[C@@H](Oc1cc(-c2cnn(C3CCNCC3)c2)cnc1N)c1c(Cl)ccc(F)c1Cl	2.61
CC(C(=O)O)c1ccc(-c2ccccc2)c(F)c1 (stereo not given) [Flurbiprofen]	0.869
Nc1nc2ccc(OC(F)(F)F)cc2s1 [Riluzole]	1.35
O=C(O)C[C@H](O)C[C@H](O)/C=C/c1c(C2CC2)nc2ccccc2c1-c1ccc(F)cc1 [Pitavastatin calcium]	0.432
O=S(=O)(O)CCS [Mesna]	0.891
COc1ccc(-n2nc(C(N)=O)c3c2C(=O)N(c2ccc(N4CCCCC4=O)cc2)CC3)cc1 [Apixaban]	0.849
OC(c1cc(C(F)(F)F)nc2c(C(F)(F)F)cccc12)C1CCCCN1 (stereo not given) [Mefloquine hydrochloride]	1.16
CN(C)CCn1nnnc1SCC1=C(C(=O)O)N2C(=O)[C@@H](NC(=O)Cc3csc(N)n3)[C@H]2SC1 [Cefotiam hydrochloride]	0.77
CCc1cc2c(cc1N1CCC(N3CCOCC3)CC1)C(C)(C)c1[nH]c3cc(C#N)ccc3c1C2=O [Alectinib]	0.411
CCN(CC)C(=O)/C(C#N)=C/c1cc(O)c(O)c([N+](=O)[O-])c1 [Entacapone]	0.625
Nc1nc(N)c2nc(-c3ccccc3)c(N)nc2n1 [Ademine]	0.826
Nc1nc2[nH]cc(CCc3ccc(C(=O)N[C@@H](CCC(=O)O)C(=O)O)cc3)c2c(=O)[nH]1 [Pemetrexed Disodium Hydrate]	1.6
CC(=O)N(O)CCCCCNC(=O)CCC(=O)N(O)CCCCCNC(=O)CCC(=O)N(O)CCCCCN [Deferoxamine Mesylate]	0.808
CCCNS(=O)(=O)Nc1ncnc(OCCOc2ncc(Br)cn2)c1-c1ccc(Br)cc1 [Macitentan]	0.669
CCCCCOC(=O)Nc1nc(=O)n([C@@H]2O[C@H](C)[C@@H](O)[C@H]2O)cc1F [Capecitabine]	0.995
CN(C)[C@@H]1C(O)=C(C(N)=O)C(=O)[C@@]2(O)C(O)=C3C(=O)c4c(O)ccc(Cl)c4[C@@](C)(O)[C@H]3C[C@@H]12 [Chlortetracycline hydrochloride]	0.756
COc1cc(CNC(=O)CCCC/C=C/C(C)C)ccc1O [Capsaicin]	1.12
O.O.O.O.O=C([O-])CC(O)(CC(=O)[O-])C(=O)[O-].[Li+].[Li+].[Li+] [Lithium citrate tribasic tetrahydrate]	0.841
N[C@@H](C(=O)N[C@@H]1C(=O)N2C(C(=O)O)=C(Cl)CS[C@H]12)c1ccccc1 [Cefaclor monohydrate]	0.776
Cc1oncc1C(=O)Nc1ccc(C(F)(F)F)cc1 [Leflunomide]	0.992

Compound	AQP5-HiBiT luminescence
CN(Cc1cnc2nc(N)nc(N)c2n1)c1ccc(C(=O)N[C@@H](CCC(=O)O)C(=O)O)cc1 [Methotrexate]	1.78
NCCc1ccc(O)c(O)c1 [Dopamine hydrochloride]	0.484
CC(=O)OCC(COC(C)=O)OC(C)=O [Triacetin]	0.935
c1ccc([C@H]2CN3CCSC3=N2)cc1 [Levamisole hydrochloride]	0.722
NCC1CCC(C(=O)O)CC1 (stereo not given) [Amstat]	0.946
C[C@H]1O[C@@H](O[C@H]2[C@@H](O)C[C@H](O[C@H]3[C@@H](O)C[C@H](O[C@H]4CC[C@@]5(C)[C@H](CC[C@@H]6[C@@H]5CC[C@]5(C)[C@@H](C7=CC(=O)OC7)CC[C@]65O)C4)O[C@@H]3C)O[C@@H]2C)C[C@H](O)[C@@H]1O [Digitoxin]	2.16
COc1ccc2cc([C@@H](C)C(=O)O)ccc2c1 [(R)-Naproxen]	1.2
C[N+](C)(C)CC(=O)O [Betaine hydrochloride]	1.01
CCCN(CCC)S(=O)(=O)c1ccc(C(=O)O)cc1 [Probenecid]	0.721
Cc1ncc(C[n+]2csc(CCO)c2C)c(N)n1 [Thiamine hydrochloride]	1.01
Cc1[nH]c(=O)c(C#N)cc1-c1ccncc1 [Milrinone]	1.31
C[N+]1(C)CCC(=C(c2ccccc2)c2ccccc2)CC1 [Diphemanil mesylate]	1.06
NC(=O)c1ncn([C@@H]2O[C@H](CO)[C@@H](O)[C@H]2O)n1 [Ribavirin]	1.14
CNCC(O)c1ccc(O)c(O)c1 (racemic) [DL-Adrenalin]	0.706
CN(C)/N=N/c1[nH]cnc1C(N)=O [Dacarbazine]	0.976
CC[C@]1(O)C[C@H]2CN(CCc3c([nH]c4ccccc34)[C@@](C(=O)OC)(c3cc4c(cc3OC)N(C=O)[C@H]3[C@@](O)(C(=O)OC)[C@H](OC(C)=O)[C@]5(CC)C=CCN6CC[C@]43[C@@H]65)C2)C1 [Vincristine sulfate]	3.21
CO[C@H]1/C=C/O[C@@]2(C)Oc3c(C)c(O)c4c(O)c(c(/C=N/N5CCN(C6CCCC6)CC5)c(O)c4c3C2=O)NC(=O)/C(C)=C\C=C\[C@H](C)[C@H](O)[C@@H](C)[C@@H](O)[C@@H](C)[C@H](OC(C)=O)[C@@H]1C [Rifapentine]	0.985
COc1cc2ncnc(Nc3ccc(F)c(Cl)c3)c2cc1OCCCN1CCOCC1 [Gefitinib (ZD1839)]	1
CCc1cc(C(N)=S)ccn1 [Ethinamide]	1.46
Cc1[nH]c2ccccc2c1CCNCc1ccc(/C=C/C(=O)NO)cc1 [Panobinostat (LBH589)]	4.67
